Experimental data as given in US20140162936A1 (COVAGEN, published 2014).
Where a chain is given by its changes, count along the chain named.

T1: human chymase (EC 3.4.21.39) having SEQ ID NO: 16 (human, UniProt P23946 22-247, biotinylated with EZ-link sulfo-NHS-SS-biotin, 3 biotin molecules per chymase molecule (ELISA and SPR))
T1 sequence: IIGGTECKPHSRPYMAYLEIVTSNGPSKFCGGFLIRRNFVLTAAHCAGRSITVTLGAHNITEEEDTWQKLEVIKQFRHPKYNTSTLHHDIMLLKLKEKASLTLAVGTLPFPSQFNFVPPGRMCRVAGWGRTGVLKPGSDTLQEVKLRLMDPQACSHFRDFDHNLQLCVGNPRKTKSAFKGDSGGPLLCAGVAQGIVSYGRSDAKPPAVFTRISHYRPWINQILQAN

B1: Fyn SH3-derived polypeptide H2 (SEQ ID NO: 8) (designed binder)
chain: GVTLFVALYDYQADRWTDLSFHKGEKFQILRFDIGDWWEARSLTTGETGYIPSNYVAPVDSIQ
notes: Monomeric by SEC; not shown: C-terminal myc and hexa his tag from vector pQE-12
B2: Fyn SH3-derived polypeptide B5 (SEQ ID NO: 3) (designed binder)
chain: B1 chain with Q12N, D14T, R31D, F32G, I34S
notes: Monomeric by SEC; also called Fynomer; not shown: C-terminal myc and hexa his tag from vector pQE-12
B3: Fyn SH3-derived polypeptide D7 (SEQ ID NO: 7) (designed binder)
chain: B1 chain with R31S, D33H, I34V
notes: as for B1
B4: Fyn SH3-derived polypeptide E4 (SEQ ID NO: 2) (designed binder)
chain: B1 chain with Q12N, D14T, R31E, D33G, I34P
notes: as for B2
B5: Fyn SH3-derived polypeptide E5 (SEQ ID NO: 13) (designed binder)
chain: B1 chain with Q12K, D14Q, T17L, K23E, R31S, F32T, I34S
notes: not shown: C-terminal myc and hexa his tag from vector pQE-12
B6: Fyn SH3-derived polypeptide F12 (SEQ ID NO: 5) (designed binder)
chain: GVTLFVALYDYRAERSTDLSFHKGEKFQILDMTVPNGDWWEARSLTTGETGYIPSNYVAPVDSIQ
notes: as for B1
B7: Fyn SH3-derived polypeptide G2.3 (SEQ ID NO: 6) (designed binder)
chain: B6 chain with R12N, E14T, S16W, M32W, V34T, P35A
notes: as for B1
B8: Fyn SH3-derived polypeptide A4 (SEQ ID NO: 4) (designed binder)
chain: GVTLFVALYDYQADRWTDLSFHKGEKFQILDASPPGDWWEARSLTTGETGYIPSNYVAPVDSIQ
notes: as for B2
B9: Fyn SH3-derived polypeptide E3 (SEQ ID NO: 9) (designed binder)
chain: B8 chain with D31N, P34G
notes: as for B1
B10: Fyn SH3-derived polypeptide H11 (SEQ ID NO: 11) (designed binder)
chain: GVTLFVALYDYKAQRWTDLSFHKGEKFQILQAHQKTGDWWEARSLTTGETGLIPSNYVAPVDSIQ
notes: as for B5

How the values were obtained:
[1] = molecular target: biotinylated bovine serum albumin (BSA) (bovine, UniProt P02769, biotinylated with EZ-link sulfo-NHS-SS-biotin); assay: ELISA: biotinylated BSA (100 nM) on streptavidin-coated wells, purified Fyn SH3-derived polypeptide at 200 nM, detection by anti-myc 9E10 and anti-mouse IgG HRP
[2] = molecular target: T1, human chymase (EC 3.4.21.39) having SEQ …; assay: cell-based or functional assay
[3] = molecular target: T1, human chymase (EC 3.4.21.39) having SEQ …; assay: SPR, BIAcore 3000, biotinylated chymase on SA chip, monomeric polypeptide injected
[4] = molecular target: T1, human chymase (EC 3.4.21.39) having SEQ …; assay: monoclonal ELISA, bacterial lysate supernatant on biotinylated chymase

Chain of UniProt P02769 (P02769 25-607 limits assumed): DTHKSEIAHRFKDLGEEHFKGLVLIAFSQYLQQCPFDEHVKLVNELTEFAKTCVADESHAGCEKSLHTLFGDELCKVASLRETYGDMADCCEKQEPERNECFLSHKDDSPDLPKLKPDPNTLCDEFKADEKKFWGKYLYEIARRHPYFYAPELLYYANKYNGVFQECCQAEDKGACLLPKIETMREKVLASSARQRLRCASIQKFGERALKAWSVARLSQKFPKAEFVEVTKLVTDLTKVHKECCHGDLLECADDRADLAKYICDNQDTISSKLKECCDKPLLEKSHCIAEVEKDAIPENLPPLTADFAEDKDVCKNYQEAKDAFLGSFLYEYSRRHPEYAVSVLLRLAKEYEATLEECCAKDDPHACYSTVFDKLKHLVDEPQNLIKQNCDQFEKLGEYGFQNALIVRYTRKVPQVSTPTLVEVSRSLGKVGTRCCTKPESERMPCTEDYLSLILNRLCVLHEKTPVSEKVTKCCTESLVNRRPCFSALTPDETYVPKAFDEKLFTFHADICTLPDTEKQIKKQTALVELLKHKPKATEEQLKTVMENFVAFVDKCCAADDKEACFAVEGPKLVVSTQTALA

Row | Binder | binding result [1] | further results
1 | B1 | no binding (tested: 200 nM) | –
2 | B2 | no binding (tested: 200 nM) | –
3 | B3 | no binding (tested: 200 nM) | –
4 | B4 | no binding (tested: 200 nM) | IC50 values for inhibition of chymase activity [2]: 2 nM; Kd [3]: 0.9 nM; koff [3]: 0.00066 s⁻¹
5 | B5 | – | binding result [4]: binds
6 | B6 | no binding (tested: 200 nM) | –
7 | B7 | no binding (tested: 200 nM) | –
8 | B8 | no binding (tested: 200 nM) | –
9 | B9 | no binding (tested: 200 nM) | –
10 | B10 | – | binding result [4]: binds
